Paper PMC4336329 (PLoS ONE, 2015)
Hit rate of the full screen: of about 310,000 compounds, about 14,000 (4.5%) showed an effect of 50% or more. Effects have a minus sign here. This is one part of the list.

Target: human ether-à-go-go-related gene (hERG) potassium channel (human, UniProt Q12809)
Experiment: primary screen, population patch clamp on CHO cells stably expressing hERG
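Further: peak tail current of the secondary pulse compared with the same well before compound.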

Chain of human ether-à-go-go-related gene (hERG) potassium channel (Q12809 whole entry, looked up): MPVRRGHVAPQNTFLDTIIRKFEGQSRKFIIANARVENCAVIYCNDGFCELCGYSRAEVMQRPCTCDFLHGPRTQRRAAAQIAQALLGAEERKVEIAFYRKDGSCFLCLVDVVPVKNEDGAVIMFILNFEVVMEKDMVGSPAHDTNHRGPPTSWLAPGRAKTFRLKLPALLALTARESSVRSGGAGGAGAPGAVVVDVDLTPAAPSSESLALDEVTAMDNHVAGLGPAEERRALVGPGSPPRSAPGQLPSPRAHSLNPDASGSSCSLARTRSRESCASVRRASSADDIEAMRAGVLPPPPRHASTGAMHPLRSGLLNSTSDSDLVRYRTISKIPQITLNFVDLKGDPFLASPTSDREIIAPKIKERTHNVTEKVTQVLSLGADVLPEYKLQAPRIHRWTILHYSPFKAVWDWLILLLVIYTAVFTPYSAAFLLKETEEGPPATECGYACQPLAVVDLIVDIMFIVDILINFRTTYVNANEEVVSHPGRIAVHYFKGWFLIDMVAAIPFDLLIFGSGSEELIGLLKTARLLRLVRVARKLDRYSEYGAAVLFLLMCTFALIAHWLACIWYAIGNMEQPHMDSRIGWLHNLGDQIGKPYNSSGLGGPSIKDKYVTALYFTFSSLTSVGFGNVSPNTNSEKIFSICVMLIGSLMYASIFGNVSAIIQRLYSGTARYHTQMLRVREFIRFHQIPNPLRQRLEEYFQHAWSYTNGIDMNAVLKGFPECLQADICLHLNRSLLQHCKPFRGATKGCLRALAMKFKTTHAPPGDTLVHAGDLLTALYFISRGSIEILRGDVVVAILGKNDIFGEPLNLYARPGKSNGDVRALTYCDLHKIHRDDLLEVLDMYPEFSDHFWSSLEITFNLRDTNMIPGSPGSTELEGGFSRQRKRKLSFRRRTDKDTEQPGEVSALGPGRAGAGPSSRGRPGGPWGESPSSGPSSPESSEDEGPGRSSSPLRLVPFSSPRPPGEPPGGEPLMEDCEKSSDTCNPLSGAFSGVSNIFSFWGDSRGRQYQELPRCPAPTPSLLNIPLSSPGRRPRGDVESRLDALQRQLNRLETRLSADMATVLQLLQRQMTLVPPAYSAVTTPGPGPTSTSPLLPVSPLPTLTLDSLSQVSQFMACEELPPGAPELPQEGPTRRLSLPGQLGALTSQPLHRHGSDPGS

Row | SMILES | hERG current change (%, negative = inhibition) at 10uM [%]
1 | COc1ccc(S(=O)(=O)Nc2ccccc2C(=O)N2CCOCC2)cc1Br | -1.62
2 | CCOC(=O)c1sc(NC(=O)c2ccncc2)nc1C | -3.04
3 | COc1ccc(NC(=O)C(CC(C)C)NC(=O)C2CCC(C)CC2)cc1 (centres unmarked) | 10.1
4 | COc1ccc(CCNC(=O)CSc2ccccn2)cc1 | 1.38
5 | Cc1nc2c(c3c1[nH]c1ccccc13)C(=O)CC(C)(C)C2 | -0.41
6 | CC(C)N(C(=O)CSc1nc(Cc2ccccc2)nc2ccccc12)C(C)C | 2.86
7 | CCOc1ccc(C2CC(c3cccc(C)c3)n3ncnc3N2)cc1 (centres unmarked) | -45.5
8 | CC(=O)NC1=NN(C(C)=O)C(C)(CS(=O)(=O)c2ccc(C)c(C)c2)S1 (centres unmarked) | 5.82
9 | Cc1ccc(C)c(NC(=O)NCCN2CCCCC2)c1 | -15.1
10 | CCOC(=O)C(NC(C)=O)(Nc1cccc(F)c1)C(F)(F)F (centres unmarked) | 7.74
11 | Cc1ccc(-c2csc(NC(=O)c3ccccc3Cl)c2C(=O)O)cc1 | 20.8
12 | CCCCN(C(=O)c1cc(-c2ccco2)nc2ccccc12)c1c(N)n(CCCC)c(=O)[nH]c1=O | 2.18
13 | CCOC(=O)C1(Cc2ccccc2C)CCCN(C(=O)CN2CCCCC2=O)C1 (centres unmarked) | 14.8
14 | COc1ccc(Oc2nc(-c3ccccc3)ncc2C(=O)O)cc1 | 10.9
15 | CCCN(CCC)S(=O)(=O)c1ccc(C(=O)N2CC3CCC(CC3)C2)cc1 | 11.9
16 | O=c1c2c(-c3ccccc3)csc2nc2n1CCC2 | 14.5
17 | FC(F)(F)c1ccccc1NC1=NCCC1 | 0.577
18 | O=C(Nc1ccccc1NC(=O)c1c(F)c(F)c(F)c(F)c1F)c1c(F)c(F)c(F)c(F)c1F | -0.695
19 | CC(OC(=O)C1CCCC1)C(=O)Nc1ccc(C(N)=O)cc1 (centres unmarked) | 11.5
20 | Cc1ccc(N2CC(C(=O)OCc3ccccc3)CC2=O)cc1 (centres unmarked) | -15.6
21 | NC(=S)N/N=C1\CCOc2ccc(Cl)cc21 | 1.36
22 | CCOC(=O)c1c(S(=O)(=O)N2CCCC(C(=O)Nc3ncccc3C)C2)c(C)n(C)c1C (centres unmarked) | 15.6

Row | SMILES | hERG current change (%, negative = inhibition) at 10uM [%]
23 | CC1=NN(C(=O)c2csc(C)c2C)C(O)(C(F)(F)F)C1 (centres unmarked) | 0.00158
24 | Cc1ccc(C(=O)N/N=C/c2sc(=O)n(Cc3cccc(C(=O)O)c3)c2Cl)cc1 | 7.4
25 | CC1CCCN(CC(=O)Nc2cc(Cl)ccc2Oc2ccccc2)C1 (centres unmarked) | 14.3
26 | COc1ccc(S(=O)(=O)N2CCCCCC2)cc1NC(=O)CC1OC(=O)c2ccccc21 (centres unmarked) | -23.1
27 | O=C1/C(=C/c2ccco2)CCC1C1CCCC1 (centres unmarked) | 19.6
28 | O=C(CSc1nc2ccccc2[nH]1)Nc1nc(-c2cccc(Br)c2)cs1 | 14.3
29 | CNC(=O)C1=NCCCc2cc(OC)c(OC)cc21 | -9.41
30 | COc1ccccc1CNC(=O)C1CC(c2cccc([N+](=O)[O-])c2)=NO1 (centres unmarked) | -30.6
31 | C=CCn1c(SCC(=O)c2ccc(Br)cc2)nnc1C(C)NC(=O)Cc1ccc(OC)cc1 (centres unmarked) | -7.55
32 | COc1ccc(CCNC(=O)COC(=O)c2ccc(F)c(S(=O)(=O)N3CCOCC3)c2)cc1 | -28.5
33 | CC1=C(C#N)C(=O)N(C2CCS(=O)(=O)C2)C(=O)/C1=C\c1ccco1 (centres unmarked) | 7.81
34 | C/C(=N\NC(=O)C(O)(c1ccccc1)c1ccccc1)c1ccc(C)o1 | -2.62
35 | Cl.Oc1ccccc1C1NCc2ccccc2-n2cccc21 (centres unmarked) | 12.6
36 | CCOC(=O)/C(C#N)=C1/C=CN(C)C(C)=N1 | 8.75
37 | COc1ccc(CN2C(=O)NC(=O)/C(=C/c3cc(OC)c(OC)c(OC)c3)C2=O)cc1 | 13.1
38 | CCCOc1ccc(N)cc1N.Cl | 7.66
39 | COc1ccc(NC(=O)CS(=O)(=O)c2cn(CC(=O)N3CCCC3)c3ccccc23)c(OC)c1 | 2.47
40 | Cc1ccc(NC(=S)N2CCCC(c3nc4ccc(C)cc4[nH]3)C2)c(C)c1 (centres unmarked) | 1.56
41 | CCn1cc(CNC(=O)CCc2nnc(CCC3CCCCC3)o2)cn1 | 11.8
42 | Cc1nc2ccc([N+](=O)[O-])cc2c(=O)n1Cc1ccc(F)cc1 | -26.2
43 | CSc1ccc(C(=O)C2CCCN(C(=O)c3cc4cc(F)ccc4[nH]3)C2)cc1 (centres unmarked) | 1.84
44 | COc1ccc2c(OC)cc(-c3ccccc3)nc2c1 | -19.5
